# Several values for one entry are separate records, joined by “and”; a condition that tells them apart may be missing. Equal entries are not always repeated. Among all 71,000 compounds or so, about 1,800 (2.5%) were called active. The shares of active, inactive and inconclusive entries below differ from those in the screen. Calls follow the shape of the dose curve; as a rule, active = well fitted activation curve with a large enough effect in the signal ratio, with a control signal flat (not every such curve was filed as active); inconclusive = small, poorly fitted or top-dose-only effect, or effect the other way, or a change in a side signal; inactive = flat fitted curve, though single readings scatter; the % refers to the signal ratio. Potencies of inconclusive entries are doubtful fits and often do not repeat.
# Experiment: Cell signaling CRE-BLA (Fsk stim); as to activity change, negative = inhibition: % of control where 0% means no effect
# Conditions: CHO CRE-bla reporter (cAMP response element driving beta-lactamase), forskolin EC10, beta-lactamase ratio
# Summary of the method: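 Forskolin analogue NKH 477 at EC10 stimulated CRE-driven beta-lactamase in CHO cells alongside compound dilution series. Beta-lactamase was measured with CCF4, excitation 405 nm, emission ratio 460/530 nm.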
# [1] = activity change, negative = inhibition: at 38.2 µM (top of the series) unless noted
# Potency is read from the fitted curve at half-maximal effect; tags tell the direction and shape of the fitted curve.
structure (smiles),measurement,setting,value
CCc1ccc(CCN2CCCCC2)nc1,"activity change, negative = inhibition",[1],inactive: -4.86% [at 7.6 µM]
N#Cc1cccc(NC(=O)N2CC[C@@]3(CCCN(C(=O)Oc4ccccc4)C3)C2)c1,"activity change, negative = inhibition",[1],inactive
O=C(O)Cn1cc(C(=O)c2ccccc2)c2ccccc21,"activity change, negative = inhibition",[1],inconclusive: 49.1%
CC(C)[C@]1(O)[C@@H](OC(=O)c2ccc[nH]2)[C@]2(O)[C@@]3(C)C[C@@]4(O)O[C@@]5([C@H](O)[C@@H](C)CC[C@]35O)[C@]2(O)[C@]41C,"activity change, negative = inhibition",[1],inactive: 9.88% [at 7.6 µM]
Cc1ccc2c(c1)CC1(CN2C)C(=O)NC(=O)N(c2cccc(C)c2C)C1=O (configuration not stated),"activity change, negative = inhibition",[1],inconclusive: 26.2%
O=C1C=C2C=C[C@H]3C[C@@]2(O1)[C@H]1CCCCN31,"activity change, negative = inhibition",at 17.1 µM (top of the series),inconclusive: -21.8%
same,"activity change, negative = inhibition",at 38.2 µM (top of the series),inconclusive: -19.8%
CCOCCCN=Cc1c(O)n(Cc2ccccc2)c(=O)[nH]c1=O,Potency,[1],"inconclusive: 2 µM [rising, full curve, poor fit]"
c1ccc(Nc2ccc(Nc3ccccc3)cc2)cc1,"activity change, negative = inhibition",[1],inactive
Clc1nc(Cl)nc(Nc2ccccc2Cl)n1,"activity change, negative = inhibition",[1],inactive
O=S1OCC2C(CO1)C1(Cl)C(Cl)=C(Cl)C2(Cl)C1(Cl)Cl (configuration not stated),Potency,[1],"inconclusive: 15.8 µM [rising, partial curve]"
O=C(Nc1ccccc1OC(=O)N1CCCCC1)N1CCCCC1,Potency,[1],"inconclusive: 0.0631 µM [rising, full curve]"
c1ccc(-c2ccccc2)cc1,"activity change, negative = inhibition",[1],inactive
C=C(C)C#N,"activity change, negative = inhibition",[1],inactive
CNP1(NC)=Nc2nn(-c3ccccc3)c(N)c2C(c2ccccc2)=N1,Potency,[1],"inconclusive: 5.01 µM [falling, single point]"
CN1C[C@@H](CS(=O)(=O)N(C)C)C[C@H]2c3cccc4c3c(cn4C)C[C@@H]21,"activity change, negative = inhibition",[1],inactive
C[n+]1c(/C=C\c2ccc(O)c3ncccc23)[se]c2ccccc21,Potency,[1],"inconclusive: 5.01 µM [rising, single point]"
CC(=NCCC1=CCCCC1)c1c(O)n(C)c(=O)n(C)c1=O,"activity change, negative = inhibition",[1],inconclusive: 7.48%
COc1cc(-c2ccc(N)c(OC)c2)ccc1N,"activity change, negative = inhibition",[1],inconclusive: 16.1%
N=C(N)SCc1ccc(Cl)c2ccccc12 (tested in a mixture with another compound),"activity change, negative = inhibition",[1],inactive: -2.17% [at 7.6 µM] and inactive: -0.212% [at 7.6 µM]
Cc1ccc(C)c(CN2CCC(n3nnc4cc(F)ccc43)CC2)c1,"activity change, negative = inhibition",[1],inconclusive: -14.5%
C[C@@H]1O[C@H](O[C@H]2C[C@@H](O)[C@]3(CO)[C@H]4[C@H](O)C[C@]5(C)[C@@H](C6=CC(=O)OC6)CC[C@@]5(O)[C@H]4CC[C@]3(O)C2)[C@@H](O)[C@H](O)[C@H]1O,"activity change, negative = inhibition",[1],inconclusive: -8.87%
CC(C)OC(=O)Cc1ccccc1,"activity change, negative = inhibition",[1],inconclusive: -6.13%
CCCCn1c(N)c(C(=O)OCC2CCCO2)c2nc3ccccc3nc21 (configuration not stated),Potency,[1],"inconclusive: 5.01 µM [rising, partial curve]"
C=C[C@@H]1CN2CC[C@H]1C[C@H]2[C@@H](O)c1ccnc2ccccc12,"activity change, negative = inhibition",[1],inactive
CC(=NCc1ccc(F)cc1)c1c(O)n(C)c(=O)n(C)c1=O,"activity change, negative = inhibition",[1],inconclusive: 21.2%
FC(F)(F)c1ccc2c(c1)NP(=S)(N1CCOCC1)c1nccn1-2 (configuration not stated),"activity change, negative = inhibition",[1],inconclusive: 15.4%
Cc1nc(-c2ccc(-c3ccc(C(=O)N4CCc5cc6c(cc54)C4(CCN(C)CC4)CO6)cc3)c(C)c2)no1,"activity change, negative = inhibition",[1],inconclusive: -16%
NNc1c(C(N)=O)c2c(N)ncnc2n1[C@@H]1O[C@H](CO)[C@@H](O)[C@@H]1O,"activity change, negative = inhibition",[1],inconclusive: -15.1% [at 7.6 µM]
CC(=O)OC1=CC2=CC[C@H]3[C@H]4CCC(=O)[C@@]4(C)CC(=O)[C@]3(S)[C@]2(C)CC1,"activity change, negative = inhibition",[1],inactive: 4.07% [at 7.6 µM]
CCOC(=O)C1CCCCC12C(C#N)=C(N)Oc1n[nH]c(C)c12 (configuration not stated),"activity change, negative = inhibition",[1],inactive
c1ccc(N2CCC3(CCNCC3)CC2)nc1,"activity change, negative = inhibition",[1],inconclusive: -4.16%
CC(C)c1cccc(C(C)C)c1O,"activity change, negative = inhibition",[1],inactive
CCOC(=O)c1c(N)n(Cc2ccco2)c2nc3ccccc3nc12,Potency,[1],"inconclusive: 10 µM [rising, partial curve]"
CCC(C)NC(=O)c1c(N)n(CCCOC)c2nc3ccccc3nc12 (configuration not stated),Potency,[1],"inconclusive: 12.6 µM [rising, partial curve]"
CCOC(=O)C1C(=O)NC2(C)CC1c1cc(OC)ccc1O2 (configuration not stated),"activity change, negative = inhibition",[1],inconclusive: 17.8%
COc1ccc(C2=NCC(=O)N(CC(=O)NCc3ccco3)c3sc4c(c32)CCCC4)cc1,Potency,[1],"inconclusive: 12.6 µM [falling, single point]"
O=[N+]([O-])c1c(Cl)c(Cl)c(Cl)c(Cl)c1Cl,"activity change, negative = inhibition",[1],inconclusive: -27.2%
O=C(O)C[O][Sb][O]CC(=O)O,"activity change, negative = inhibition",[1],inactive: 6.14% [at 7.6 µM]
N[C@@H](Cc1c[nH]c2cc([N+](=O)[O-])ccc12)C(=O)O,"activity change, negative = inhibition",[1],inactive: 1.25% [at 7.6 µM]
CCCCCCCCCOc1ccc2[nH]cc(CCN)c2c1,Potency,[1],"inconclusive: 7.94 µM [falling, partial curve, poor fit]"
FC(F)(F)c1ccc2c(c1)nnn2C1CCN(Cc2nnnn2Cc2ccccc2)CC1,"activity change, negative = inhibition",[1],inconclusive: 19.3%
CN(C)c1ccc(N=Cc2c(O)n(CCC3=CCCCC3)c(=O)[nH]c2=O)cc1,Potency,[1],"inconclusive: 25.1 µM [falling, single point]"
Clc1ccc(COC(Cn2ccnc2)c2ccc(Cl)cc2Cl)cc1 (configuration not stated),"activity change, negative = inhibition",[1],inconclusive: 13.5% [cytotoxic]
CN1CCN(C(=O)COc2ccc3ccccc3c2Br)CC1,Potency,[1],active: 2.51 µM
CN1C[C@@H](CNC(=O)OCc2ccccc2)C[C@H]2c3cccc4c3c(cn4C)C[C@@H]21,"activity change, negative = inhibition",[1],inactive
N[C@]1(C(=O)O)CC[C@@H](C(=O)O)C1,"activity change, negative = inhibition",[1],inactive
Cc1ccc2c(c1)C1CN(C)CCC1N2C(=O)Cn1cnc2c1c(=O)n(C)c(=O)n2C (configuration not stated),Potency,[1],"inconclusive: 3.16 µM [falling, single point]"
O=C1C2CC=CCC2C(=O)N1SC(Cl)(Cl)Cl (configuration not stated),Potency,[1],"inconclusive: 0.631 µM [falling, full curve, poor fit]"
same,"activity change, negative = inhibition",[1],inconclusive: 19.7% [cytotoxic]
CCCCN1CCC(C#N)(Nc2ccccc2)CC1,"activity change, negative = inhibition",[1],inconclusive: -13.9%
CCCCn1c(N)c(C(=O)NCCN2CCOCC2)c2nc3ccccc3nc21,Potency,[1],active: 10 µM
CCNC(=O)[C@@H]1O[C@@H](n2cnc3c(N)ncnc32)[C@@H](O)[C@H]1O,"activity change, negative = inhibition",[1],inactive
CC1CCN2c3nc4ccccn4c(=O)c3CC3(C(=O)N(C)C(=O)N(C)C3=O)C2C1 (configuration not stated),"activity change, negative = inhibition",[1],inactive
CC(Cc1ccccc1)[n+]1cc(/N=C(\N)[O-])on1 (configuration not stated),"activity change, negative = inhibition",[1],inactive
N#CC(C#N)=Cc1cc(O)c(O)c(O)c1,"activity change, negative = inhibition",[1],inactive
Cc1ccc2c(c1N)C(=O)c1ccccc1C2=O,Potency,[1],"inconclusive: 10 µM [rising, partial curve]"
O=C(O)CC[N+](=O)[O-],"activity change, negative = inhibition",[1],inactive
Cc1ccc2nc3c(cc2c1)CC1(C(=O)N(C)C(=O)N(C)C1=O)C1COCCN31 (configuration not stated),"activity change, negative = inhibition",[1],inactive
O=C(Cl)OCc1ccccc1,"activity change, negative = inhibition",[1],inactive
O=C(CN1CCN(Cc2cccc(Cl)c2)C1=O)N1CCC2(CC1)OCCO2,"activity change, negative = inhibition",[1],inconclusive: 26.5%
CCC[C@@](C)(COC(N)=O)COC(=O)NC(C)C,"activity change, negative = inhibition",[1],inconclusive: 0.0613% [at 17.1 µM]
CN(C)c1ccc2c(c1)N=C(c1ccco1)OP2(=S)N1CCOCC1 (configuration not stated),"activity change, negative = inhibition",[1],inactive
Cc1cc(OCC(=O)O)c2c3c(c(=O)oc2c1)CCCC3,Potency,[1],"inconclusive: 0.398 µM [falling, full curve, poor fit]"
N[C@H](Cn1ccc(=O)[nH]c1=O)C(=O)O,"activity change, negative = inhibition",[1],inactive
c1ccc([C@H]2CNCc3ccccc32)cc1,"activity change, negative = inhibition",[1],inconclusive: 0.293%
O=P(/C(=N/O)N1CCCCC1)(N1CCOCC1)N1CCOCC1,"activity change, negative = inhibition",[1],inconclusive: 6.55%
COc1cccc(-n2nc(C(=O)N3CCC4(CC3)OCCO4)c3ccccc3c2=O)c1,Potency,[1],"inconclusive: 15.8 µM [rising, partial curve]"
NC1(P(=O)(O)O)CCCCC1,"activity change, negative = inhibition",[1],inactive: -2.26% [at 7.6 µM]
CC(=NCCCN1CCOCC1)c1c(O)n(Cc2ccccc2)c(=O)[nH]c1=O,"activity change, negative = inhibition",[1],inconclusive: 15.6%
Cn1c(=O)cc(SCC(=O)N2CCC3(CC2)OCCO3)c2ccc(Cl)cc21,"activity change, negative = inhibition",[1],inactive
NS(=O)(=O)C[C-]1C=C[CH]([Sb-]([Cl])([Cl])([Cl])([Cl])[Cl])C=C1.c1ccncc1 (configuration not stated),"activity change, negative = inhibition",[1],inactive: 6.25% [at 7.6 µM]
COc1cc2cc(c1Cl)N(C)C(=O)C[C@H](OC(=O)C(C)C)[C@]1(C)O[C@@H]1[C@@H](C)[C@H]1C[C@](O)(NC(=O)O1)[C@@H](OC)/C=C\C=C(\C)C2,Potency,[1],active: 0.0158 µM
Nc1nc(N)c(N=Nc2ccc([As](=O)(O)O)cc2)c(=O)[nH]1,"activity change, negative = inhibition",[1],inactive: 9.74% [at 7.6 µM]
C1C[C@@H]2CN(CCCN3CCOCC3)[C@@H](C1)O2,"activity change, negative = inhibition",[1],inactive: 2.37% [at 7.6 µM]
O=C(O)[C@@H]1[C@H](C(=O)O)[C@]2(Cl)C(Cl)=C(Cl)[C@@]1(Cl)C2(Cl)Cl,"activity change, negative = inhibition",[1],inactive: 8.93% [at 7.6 µM]
N#CSCSC#N,Potency,[1],"inconclusive: 5.01 µM [rising, partial curve]"
O=C(CCCN1CCC2(CC1)C(=O)NCN2c1ccccc1)c1ccc(F)cc1,Potency,[1],"inconclusive: 12.6 µM [rising, single point]"
same,"activity change, negative = inhibition",[1],inconclusive: 17.6%
CN1CCN(Cc2ccccc2C(F)(F)F)CC1,Potency,[1],"inconclusive: 0.00398 µM [falling, full curve, poor fit]"
CCC(=NCc1cccnc1)c1c(O)n(C2CCCCC2)c(=O)[nH]c1=O,Potency,[1],"inconclusive: 6.31 µM [rising, partial curve]"
O=C(c1cccc(N2CCCC2=O)c1)N1CCC2(CC1)OCCO2,"activity change, negative = inhibition",[1],inconclusive: -9.09%
